From PubChem BioAssay AID485281 (National Center for Advancing Translational Sciences (NCATS), 2010)
Hit rate of the full screen: of about 350,000 compounds, about 260 (0.074%) were called active. The shares of active, inactive and inconclusive entries below differ from those in the screen. The call rests on the fitted dose curve; in most records, active means well fitted inhibition curve with a large enough effect; inconclusive means small, poorly fitted or top-dose-only effect; inactive means no such curve, though single readings can be large or run the other way. A potency beside an inconclusive call is a rough fit, not a confirmed value.

The molecules below were run against Ferritin light chain (Equus caballus) (UniProt P02791) (assay: qHTS Assay for Identification of Novel General Anesthetics). Conditions: apoferritin/1-aminoanthracene competitive binding, fluorescence; series mostly up to 77.5 µM.
Chain of UniProt P02791 (P02791 whole entry, looked up): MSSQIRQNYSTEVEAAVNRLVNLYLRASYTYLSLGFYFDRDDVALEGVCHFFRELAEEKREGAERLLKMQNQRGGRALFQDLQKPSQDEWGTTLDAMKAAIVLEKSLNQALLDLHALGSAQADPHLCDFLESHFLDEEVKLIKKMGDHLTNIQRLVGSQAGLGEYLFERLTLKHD
Method in brief: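 Horse-spleen apoferritin (10 uM) in 50% saturated 1-aminoanthracene in PBS was incubated 10 min at room temperature with compound. Fluorescence (ex 380, em 535 nm) was normalized to free and bound 1-AMA, with concentration-response fitted by a four-parameter Hill equation.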
Further: nearly all actives have a fitted effect of over 20% in size.
Potency means the concentration at half of the fitted maximal effect; tags describe the fitted curve by direction and shape.

SMILES | Potency
O=S(=O)(Nc1cccc(-c2ccc(N3CCOCC3)nn2)c1)c1ccccc1C(F)(F)F | inconclusive: 31.6 µM [inhibitor, single point]
CCOc1ccc(NC(=O)[C@H](Cc2ccccc2)N2Cc3ccccc3C2=O)cc1 | inactive
COc1ccc2cc3cc(C(=O)Nc4cc(OC)c(OC)c(OC)c4)oc3nc2c1 | inactive
CC(=O)c1cccc(S(=O)(=O)N2CCCC(c3nc4c(nnn4Cc4cccc(Cl)c4)c(=O)[nH]3)C2)c1 (stereo not given) | inconclusive: 22.4 µM [inhibitor, partial curve]
O=C(CC1N=C2c3ccccc3N=C(SCc3ccccc3Cl)N2C1=O)NCc1cccs1 (stereo not given) | inactive
COc1ccc(NC(=O)C(=O)NCC(c2cccnc2)N2CCc3ccccc3C2)cc1 (stereo not given) | inconclusive: 10 µM [inhibitor, partial curve]
Cc1ccccc1Cn1cc(NC(=O)c2cc(C3CC3)on2)cn1 | inconclusive: 28.2 µM [inhibitor, partial curve]
CC1Cc2ccccc2N1C(=O)Cc1cccs1 (stereo not given) | inconclusive: 39.8 µM [inhibitor, single point]
O=C(COC(=O)c1cc([N+](=O)[O-])ccc1NCCO)NCc1cccs1 | inconclusive: 31.6 µM [inhibitor, partial curve]
CCOC(=O)C1=C(c2ccccc2)c2cc(OC)ccc2OC1C(=O)OCC (stereo not given) | inactive
CN(C(=O)c1ccc2c(c1)N(Cc1ccccc1F)C(=O)c1ccccc1S2(=O)=O)C1CCCCC1 | inconclusive: 8.91 µM [inhibitor, partial curve]
CC1Cc2ccccc2N1C(=O)CSc1nccc(=O)[nH]1 (stereo not given) | inconclusive: 6.31 µM [inhibitor, full curve]
COc1ccccc1NC(=O)c1ccc(NC(=O)Cc2n[nH]c(=O)c3ccccc23)cc1 | inconclusive: 39.8 µM [inhibitor, partial curve]
COc1cc2c(cc1OC)/C(=C/C(=O)c1cccc([N+](=O)[O-])c1)NCC2 | inconclusive: 25.1 µM [inhibitor, partial curve]
CC(=O)Nc1ccc(C(=O)OCC(=O)NC(=O)NC2CCCCC2)cc1 | inconclusive: 44.7 µM [inhibitor, partial curve]
Cc1cc(C)cc(N(CC(=O)NC2CCCCC2)C(=O)c2ccc(C)s2)c1 | inconclusive: 3.55 µM [inhibitor, full curve]
Cc1nnc(SCC(=O)NC23CC4CC(CC(C4)C2)C3)n(N)c1=O | inconclusive: 6.31 µM [inhibitor, full curve]
COc1ccc(-c2c3c(nc4sc(C(=O)Nc5cc(C)on5)c(N)c24)CCC3)cc1 | inactive
Cn1cc(C(=O)C(=O)NC2CCCCC2)c2ccccc21 | inconclusive: 31.6 µM [inhibitor, partial curve]
COc1ccc(C2CC(=O)c3cnc(NC(=O)c4ccccc4OC)nc3C2)c(OC)c1 (stereo not given) | inconclusive: 44.7 µM [inhibitor, single point]
CCOc1ccc2oc(C(=O)OCC(=O)NC(=O)NC3CCCC3)c(C)c2c1 | inconclusive: 12.6 µM [inhibitor, partial curve]
CCCc1cc(=O)[nH]c(SCC(=O)c2cc(C)n(CCC)c2C)n1 | inconclusive: 35.5 µM [inhibitor, partial curve]

SMILES | Potency
COc1ccc(N/C=C/C(=O)c2ccc(Oc3ncccn3)cc2)cc1 | inconclusive: 8.91 µM [inhibitor, partial curve]
CCOC(=O)c1c(C)c(C(=O)NCc2ccc(Cl)cc2)c(C)n1CC | inactive
O=C(CO/N=C/c1cccc([N+](=O)[O-])c1)NC1CCCCC1 | inconclusive: 50.1 µM [inhibitor, single point]
COc1cc(-c2nnc(-c3ccc(N4CCOCC4)cc3)o2)cc(OC)c1OC | inactive
Cc1cccc(NC(=O)CN(C)S(=O)(=O)c2cccc3cccnc23)c1C | inactive
CN(c1ccccc1)c1nc(-n2ccnc2)nc(-n2ccnc2)n1 | inactive
NNC(=O)c1[nH]c2ccc(Cl)cc2c1-c1ccccc1 | inactive
Cc1ccccc1C(=O)N1CCC(C(=O)Nc2ccc(C(C)C)cc2)CC1 | inconclusive: 25.1 µM [inhibitor, partial curve]
O=C(Nc1ccccc1)Nc1n[nH]c2nnc(-c3ccccc3)c(-c3ccccc3)c12 | inconclusive: 12.6 µM [inhibitor, partial curve]
COc1ccc(NC(=O)CCCc2nnc3n(CCC(C)C)c(=O)c4sccc4n23)cc1Cl | inconclusive: 56.2 µM [inhibitor, single point]
COc1ccc(N2CCN(C(=O)COc3ccc4c(C)cc(=O)oc4c3)CC2)cc1 | inconclusive: 28.2 µM [inhibitor, partial curve]
CC(C)([CH2][Sn]([CH2]C(C)(C)c1ccccc1)([CH2]C(C)(C)c1ccccc1)[O][Sn]([CH2]C(C)(C)c1ccccc1)([CH2]C(C)(C)c1ccccc1)[CH2]C(C)(C)c1ccccc1)c1ccccc1 | inactive
C/C(=N\NC(=O)CNC(=O)C1COc2ccccc2O1)c1ccco1 (stereo not given) | inconclusive: 56.2 µM [inhibitor, single point]
O=C(CCSCc1ccccc1Cl)N1CCN(c2ccc(F)cc2)CC1 | inactive
O=c1c2ccccc2nnn1CSc1ccc2c(c1)OCCO2 | inconclusive: 35.5 µM [inhibitor, partial curve]
Cc1cn(-c2cc(NC(=O)c3ccc(C)c(NC(=O)c4cccc(-c5cn[nH]c(=O)c5)c4)c3)cc(C(F)(F)F)c2)cn1 | inconclusive: 20 µM [inhibitor, partial curve]
COc1ccc(/C=C/C(=O)c2ccc(NS(=O)(=O)c3ccc(C)cc3)cc2)cc1O | inconclusive: 44.7 µM [inhibitor, partial curve]
COc1ccc(-c2c(C#N)c(N)nc3c2c(=O)n(C)c(=O)n3C)cc1 | inactive
CC(C)OC(=O)CN1C(=O)S/C(=C/c2ccc(N3CCCCC3)o2)C1=O | inconclusive: 35.5 µM [inhibitor, partial curve]
CCS(=O)(=O)N1Cc2ccccc2CC1C(=O)Nc1nc2c(C)cccc2s1 (stereo not given) | inactive
Cc1cc(NC(=O)CCC(=O)N(c2ccc(F)cc2)C(C(=O)NC2CCCC2)c2ccc(C)o2)no1 (stereo not given) | inconclusive: 28.2 µM [inhibitor, single point]
Cc1cccc(NC(=O)C2CCN(S(=O)(=O)c3ccc4c(c3)CCCC(=O)N4)CC2)c1 | inconclusive: 3.55 µM [inhibitor, single point]

SMILES | Potency
COc1ccc(-c2cc(C(F)(F)F)nc(SCCC(=O)Nc3cccc(O)c3)n2)cc1 | inconclusive: 11.2 µM [inhibitor, partial curve]
Cc1cc(=O)n(CC(=O)Nc2cccc([N+](=O)[O-])c2)c(-n2nc(C)cc2C)n1 | inactive
CCCN1CCc2c(sc(NC(=O)c3ccc(S(=O)(=O)N4CCN(C(=O)OCC)CC4)cc3)c2C(N)=O)C1 | inconclusive: 11.2 µM [inhibitor, partial curve]
COc1ccc2c(c1)OC/C(=C/c1cccs1)C2=O | inconclusive: 22.4 µM [inhibitor, partial curve]
OC(COc1ccc(C2C=CCC2)cc1)CN1CCCCC1 (stereo not given) | inconclusive: 28.2 µM [inhibitor, partial curve]
CCc1ccc(C(=O)CSc2n[nH]c(-c3ccncc3)n2)cc1 | inconclusive: 35.5 µM [inhibitor, partial curve]
CCOc1ccc(N(CC(=O)Nc2cccc(C)c2C)S(=O)(=O)c2c(C)[nH]c(=O)[nH]c2=O)cc1 | inactive
COc1ccc(Cn2ccc3nc(C)c(C(=O)N4CCN(c5cc(C)ccc5C)CC4)cc3c2=O)cc1 | inconclusive: 31.6 µM [inhibitor, partial curve]
CCOc1ccc2cc(C(=O)c3ccccc3)c(=O)oc2c1 | inactive
COc1ccccc1C(=O)OCc1c(F)cccc1Cl | inconclusive: 28.2 µM [inhibitor, partial curve]
O=c1c2c3c(sc2ncn1/N=C/c1ccncc1)CCCC3 | inconclusive: 8.91 µM [inhibitor, partial curve]
O=C(CSC1=Nc2ccccc2N=C(c2ccc(F)cc2)C1)NCc1ccc(Cl)cc1 | inconclusive: 15.8 µM [inhibitor, partial curve]
COc1ccc(-c2c(C#Cc3ccccc3)c3ccccc3n2C)cc1 | inconclusive: 44.7 µM [inhibitor, single point]
CCNCc1ccc(OCc2ccccc2F)c(OC)c1 | inconclusive: 31.6 µM [inhibitor, partial curve]
O=C(COC(=O)CC1CC2CCC1C2)Nc1cc([N+](=O)[O-])ccc1F (stereo not given) | inconclusive: 14.1 µM [inhibitor, partial curve]
CN(CC(=O)NCCN1CCN(c2ccccc2)CC1)S(=O)(=O)c1ccc2c(c1)CCC(=O)N2 | inactive
COc1ccccc1NC(=O)CSc1nnc(COc2ccc(Cl)cc2)o1 | inconclusive: 35.5 µM [inhibitor, single point]
COCCSc1ncnc2c1oc1nc3c(cc12)COC(C)(C)C3 | inactive
CCc1ccccc1NC(=O)C(C)n1nc(-c2ccc(C)c(C)c2)ccc1=O (stereo not given) | inconclusive: 15.8 µM [inhibitor, partial curve]
CC1=NOC(=O)/C1=C\c1ccc(-c2cc(Cl)ccc2Cl)o1 | inconclusive: 10 µM [inhibitor, full curve]
Cc1ccc(C)c(Nc2nc3nonc3nc2Nc2cccc(C)c2C)c1 | inconclusive: 31.6 µM [inhibitor, single point]
